According to article PMC4336329 (PLoS ONE, 2015):
About 2,200 (0.71%) of roughly 310,000 compounds showed an effect of 50% or more. Effects have a minus sign here. Some of the results follow.

biological target: human ether-à-go-go-related gene (hERG) potassium channel (human, UniProt Q12809); experiment: primary screen, population patch clamp on CHO cells stably expressing hERG
Sequence (Q12809 whole entry, looked up): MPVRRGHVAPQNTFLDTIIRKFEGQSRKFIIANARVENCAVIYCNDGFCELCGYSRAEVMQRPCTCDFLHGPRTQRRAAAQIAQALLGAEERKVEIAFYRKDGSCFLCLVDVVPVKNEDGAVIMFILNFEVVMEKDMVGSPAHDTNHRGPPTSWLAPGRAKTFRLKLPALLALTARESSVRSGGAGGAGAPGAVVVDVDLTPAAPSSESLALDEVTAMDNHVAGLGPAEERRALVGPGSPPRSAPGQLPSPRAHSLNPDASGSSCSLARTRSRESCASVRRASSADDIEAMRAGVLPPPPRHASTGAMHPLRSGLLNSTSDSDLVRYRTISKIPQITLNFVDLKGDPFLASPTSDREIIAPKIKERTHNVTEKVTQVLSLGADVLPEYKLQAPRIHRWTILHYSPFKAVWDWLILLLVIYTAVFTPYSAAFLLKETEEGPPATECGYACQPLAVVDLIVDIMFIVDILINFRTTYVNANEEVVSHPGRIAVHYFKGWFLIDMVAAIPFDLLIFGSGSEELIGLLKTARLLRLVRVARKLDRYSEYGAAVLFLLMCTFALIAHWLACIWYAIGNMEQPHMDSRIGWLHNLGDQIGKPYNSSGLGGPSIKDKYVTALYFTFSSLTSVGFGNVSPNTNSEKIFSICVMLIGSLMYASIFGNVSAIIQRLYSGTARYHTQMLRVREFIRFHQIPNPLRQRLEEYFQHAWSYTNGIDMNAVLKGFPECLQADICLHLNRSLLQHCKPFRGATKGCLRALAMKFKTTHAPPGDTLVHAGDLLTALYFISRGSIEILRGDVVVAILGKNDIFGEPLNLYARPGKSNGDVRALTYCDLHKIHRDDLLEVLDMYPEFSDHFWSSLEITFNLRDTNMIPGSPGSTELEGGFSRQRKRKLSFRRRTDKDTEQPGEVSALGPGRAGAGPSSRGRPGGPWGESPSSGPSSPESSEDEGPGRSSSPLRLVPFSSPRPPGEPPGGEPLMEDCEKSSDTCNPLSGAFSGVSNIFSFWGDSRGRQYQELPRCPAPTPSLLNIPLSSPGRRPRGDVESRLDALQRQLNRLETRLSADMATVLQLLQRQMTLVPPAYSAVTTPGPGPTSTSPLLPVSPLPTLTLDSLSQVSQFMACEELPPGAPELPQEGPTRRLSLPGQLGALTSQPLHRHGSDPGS

Compared with CCC(=O)NC(=S)Nc1ccc2oc(-c3ccc(OC)cc3)nc2c1, Cc1ccccc1OCC(=O)Nc1ccc2oc(=O)ccc2c1 is higher in “hERG current change (%, negative = inhibition) at 1uM” value: 6.14% for the first, 16.3% for the second.

Going from COc1ccc(NC(=O)c2c(C)nn(Cc3ccccc3)c2C)cc1S(=O)(=O)N(C)C to COc1ccc(CC(=O)Nc2sc(Cc3ccccc3)c(C)c2C(N)=O)cc1, the “hERG current change (%, negative = inhibition) at 1uM” value falls from 13.3% to -5.44%.

Compared with CN1CCC(N(C)S(=O)(=O)c2ccc(NC(=O)COc3ccc([N+](=O)[O-])cc3)cc2)CC1, CC(=O)Nc1ccc(S(=O)(=O)N(C)CC(=O)N/N=C/c2ccc(C(=O)O)cc2)cc1 is higher in “hERG current change (%, negative = inhibition) at 1uM” value: 12.2% for the first, 14.3% for the second.

Compared with CC(C)C(=O)NNC(=O)c1cc2sccc2s1, COc1ccccc1OC(C)C(=O)NNC(=S)NC1CCCC1 (stereo not drawn) is lower in “hERG current change (%, negative = inhibition) at 1uM” value: 12.5% for the first, 9.39% for the second.

First: C/C=C/C=C\C(=O)Nc1cccc(C2=NOC3(C2)C[C@@H](C(N)=O)N(C(=O)c2cc([N+](=O)[O-])cc([N+](=O)[O-])c2C)C3)c1 (stereo partly drawn)
Second: Cc1onc(C(=O)N2CCC(Cc3ccccc3)CC2)c1[N+](=O)[O-]
The “hERG current change (%, negative = inhibition) at 1uM” value of the first is higher: 13.5% for the first, 10.9% for the second.

First: CCc1ccccc1NC(=O)C1CCCN(S(=O)(=O)c2ccc3c(c2)CC(C)N3C(C)=O)C1 (stereo not drawn)
Second: Cc1ccc(N2CC(C(=O)Nc3ccc(S(=O)(=O)NCC4CCCO4)cc3)CC2=O)cc1C (stereo not drawn)
The “hERG current change (%, negative = inhibition) at 1uM” value of the first is lower: 12.9% for the first, 13.9% for the second.

Compared with O=C(CSc1nc2ccccc2c(=O)n1NC(=O)c1ccccc1)c1ccccc1, O=C(Nc1ccc(-c2csc(-c3ccccc3)n2)cc1)c1ccccc1 is higher in “hERG current change (%, negative = inhibition) at 1uM” value: 6.93% for the first, 18.8% for the second.

Going from COc1ccc(C(C(=O)NC2CCCCC2)N(CC2CCCO2)C(=O)C2COc3ccccc3O2)cc1OC (stereo not drawn) to O=C(NC1CCCCC1)C(c1ccc2ncccc2c1)N(Cc1ccco1)C(=O)c1ccc2c(c1)OCCO2 (stereo not drawn), the “hERG current change (%, negative = inhibition) at 1uM” value rises from -10.3% to -6.75%.

First: O=c1[nH]nc(Cc2ccc3ccccc3n2)c2ccccc12
Second: CCn1c(CNC(=O)c2ccccc2Cl)cc2ccccc21
The “hERG current change (%, negative = inhibition) at 1uM” value of the first is lower: 10.5% for the first, 18.6% for the second.

Compared with CCC(C)NC(=O)CN1C(=O)c2cccc3cccc1c23 (stereo not drawn), O=C(Cn1cnc([N+](=O)[O-])n1)N/N=C/c1cccc2ccccc12 is higher in “hERG current change (%, negative = inhibition) at 1uM” value: 3.39% for the first, 7.84% for the second.

Compared with O=C(CN1C(=O)C2C3C=CC(C3)C2C1=O)Nc1ccc2nccnc2c1 (stereo not drawn), C=CCn1c(SCC(=O)Nc2cc(NC(C)=O)ccc2OC)nnc1-c1cccnc1 is lower in “hERG current change (%, negative = inhibition) at 1uM” value: 8.96% for the first, 3.44% for the second.

Compared with CS(=O)(=O)N(CCc1ccccc1)CC(N)=O, NC(=O)c1ccccc1NS(=O)(=O)Cc1ccc(Cl)cc1 is lower in “hERG current change (%, negative = inhibition) at 1uM” value: 6.92% for the first, 0.398% for the second.

Compared with COC(=O)c1c(NS(=O)(=O)c2ccccc2)csc1C, COCCn1c(=NC(=O)CCS(=O)(=O)c2ccccc2)sc2cc(C(=O)OC)ccc21 is higher in “hERG current change (%, negative = inhibition) at 1uM” value: 7.02% for the first, 16.1% for the second.

Compared with COc1ccc(-c2nc(SC)n(C(=O)c3ccco3)n2)cc1, COc1ccc2cc(C3CC(c4ccco4)=NN3C(=O)CCC(=O)O)c(Cl)nc2c1 (stereo not drawn) is lower in “hERG current change (%, negative = inhibition) at 1uM” value: 16.2% for the first, 6.09% for the second.

First: Br.COc1ccc(-c2csc(NNC3=NCCCCC3)n2)cc1
Second: COc1ccc(NC(=O)N2CCCCCC2)cc1
The “hERG current change (%, negative = inhibition) at 1uM” value of the first is lower: 14.7% for the first, 18.6% for the second.

Compared with CCOC(=O)CNC(=O)CSc1ccc2nnc(-c3ccc(F)cc3)n2n1, O=C(CSc1ccc(-c2ccco2)nn1)NCc1ccc(F)cc1 is lower in “hERG current change (%, negative = inhibition) at 1uM” value: 1.65% for the first, -0.888% for the second.

First: COc1cc(OC)cc(C(=O)NCCN2CCOCC2)c1.O=C(O)C(=O)O
Second: Cc1ccccc1CN1C(=O)c2ccccc2Sc2ccc(C(=O)NCCCN3CCOCC3)cc21
The “hERG current change (%, negative = inhibition) at 1uM” value of the first is higher: 8.34% for the first, 5.5% for the second.

Compared with O=C(O)CC/C(=N\NC(=O)c1ccncc1)c1ccccc1, CCOC(=O)C(CC(=O)O)=C(c1ccccc1)c1ccccc1 is higher in “hERG current change (%, negative = inhibition) at 1uM” value: 17.7% for the first, 19.2% for the second.

Compared with Cn1c(=O)[nH]c(=O)c2c1nc1n2CCCN1CCc1ccccc1, Cc1cccc(CC2CC(=O)N(c3nc4ccccc4s3)C2=O)c1 (stereo not drawn) is higher in “hERG current change (%, negative = inhibition) at 1uM” value: 6.26% for the first, 13.4% for the second.

First: COc1cc2[nH]c(C(=O)NCc3ccccc3)cc2c(OC)c1OC.Cl
Second: COc1cc(/C=N/NC(=O)CSc2nc3ccccc3n2C)cc(OC)c1OC
The “hERG current change (%, negative = inhibition) at 1uM” value of the first is higher: 15.2% for the first, 4.62% for the second.

Going from Cc1c(C(=O)O)sc(=S)n1-c1ccc(Cl)cc1 to CCC(=O)N1CCN(c2nc(-c3ccc(Cl)cc3)cs2)CC1, the “hERG current change (%, negative = inhibition) at 1uM” value rises from 2.99% to 9.84%.

Compared with Cc1ccccc1C(=O)c1cccn1CC(=O)O, Cc1cnc(C(=O)Oc2ccc(-c3ccccc3)cc2)cn1 is lower in “hERG current change (%, negative = inhibition) at 1uM” value: 17.6% for the first, 9.15% for the second.

Going from FC(F)(F)c1ccc(CNCCc2ccc3c(c2)OCO3)cc1.O=C(O)C(=O)O to Cc1ccc(CN(CC(=O)NCc2ccc3c(c2)OCO3)C(=O)c2csnn2)cc1, the “hERG current change (%, negative = inhibition) at 1uM” value rises from -4.97% to -1.65%.

Going from CN(C)c1nc(OCCNC(=O)COc2ccc(Cl)cc2Cl)nc(N2CCCCC2)n1 to CCN(CC)C(=O)Oc1ccc(Br)cc1C(=O)Nc1ccc(F)c(Cl)c1, the “hERG current change (%, negative = inhibition) at 1uM” value falls from 13.2% to 7.09%.

Compared with O=C(NCC(c1cccs1)N1CCOCC1)c1cc(-c2ccc(F)cc2)nc2ccccc12 (stereo not drawn), O=C(Nc1nc2ccccc2[nH]1)C1CCN(C(=O)c2ccc(F)cc2)CC1 is higher in “hERG current change (%, negative = inhibition) at 1uM” value: -27.2% for the first, -12.9% for the second.

First: CCC(CC)c1nnc(NC(=O)CC(C)c2ccccc2)s1 (stereo not drawn)
Second: CCOC(=O)N1CCC(N(C(=O)Nc2ccccc2)C(C)CC)CC1 (stereo not drawn)
The “hERG current change (%, negative = inhibition) at 1uM” value of the first is lower: 8.73% for the first, 10.4% for the second.

Compared with O=C(COc1ccc(Br)cc1)Nc1ccc(NC(=O)c2ccccc2)cc1, O=C(N/N=C/c1ccc(OC(=O)c2cccc(Br)c2)cc1)c1cccnc1 is higher in “hERG current change (%, negative = inhibition) at 1uM” value: 5.36% for the first, 11.7% for the second.

Compared with Cc1ccc(NC(=S)Nn2cnnc2)c(C)c1, Cc1csc(NC(=O)CCc2c(C)nc3cc(-c4cccc(F)c4)nn3c2C)n1 is lower in “hERG current change (%, negative = inhibition) at 1uM” value: 10.8% for the first, 3.64% for the second.

Going from O=C(N/N=C/c1ccc(Br)cc1)c1cc[n+]([O-])cc1 to Cn1cccc1/C=N/NC(=O)c1ccc(OC(F)(F)C(F)F)cc1, the “hERG current change (%, negative = inhibition) at 1uM” value falls from 3.7% to 3.65%.

First: CC(C)OC(=O)CSc1nc2c(c(C3CC=CCC3)c1C#N)CCC2 (stereo not drawn)
Second: CCc1ccc(C2CC(=O)NC(SCC(=O)OC(C)C)=C2C#N)cc1 (stereo not drawn)
The “hERG current change (%, negative = inhibition) at 1uM” value of the first is higher: 11.7% for the first, 7.68% for the second.

Compared with CCCN1C(=O)C2(OCCO2)c2cc(Cl)ccc21, CCCSC1=C(C#N)C(c2ccccc2C)CC(=O)N1 (stereo not drawn) is lower in “hERG current change (%, negative = inhibition) at 1uM” value: 16.5% for the first, 6.7% for the second.

Compared with O=C(COC(=O)/C=C/c1cccc(Br)c1)NC1CC1, COc1ccc(/C=C/C(=O)O/N=C(\N)c2ccccc2)cc1OC is lower in “hERG current change (%, negative = inhibition) at 1uM” value: 6.09% for the first, -3.48% for the second.

First: CC#CCN1c2ccccc2[C@]23C[C@@H](C(=O)OC)N(C(=O)NC(C)(C)C)C2=NC(C(=O)OC)=C(C(=O)OC)[C@H]13
Second: CCOc1ccc(N2C(=O)Nc3ccccc3C2(O)C(=O)NCc2ccc(C)cc2)cc1 (stereo not drawn)
The “hERG current change (%, negative = inhibition) at 1uM” value of the first is higher: 21.5% for the first, 11.2% for the second.

Compared with Cc1n[nH]c(C)c1CN(C)C(=O)C1CCC(=O)N(CC2CCCCC2)C1 (stereo not drawn), CCCCCN(C(=O)CCC(=O)OCC(=O)N(C)C1CCCCC1)c1c(N)n(CCCC)c(=O)[nH]c1=O is higher in “hERG current change (%, negative = inhibition) at 1uM” value: 2.33% for the first, 6.87% for the second.

First: O=c1oc2cc(Oc3ccc(C(F)(F)F)cc3[N+](=O)[O-])ccc2c2c1CCCC2
Second: CNC(=O)c1c(NC(=O)c2cccc(N3C(=O)CCC3=O)c2)sc2c1CCC2
The “hERG current change (%, negative = inhibition) at 1uM” value of the first is lower: 7.24% for the first, 16.7% for the second.

Compared with CCOc1cccc(C(=O)Nc2nnc(-c3ccco3)s2)c1, CN(C)S(=O)(=O)c1ccc(C(=O)NCc2ccco2)cc1 is higher in “hERG current change (%, negative = inhibition) at 1uM” value: 1.95% for the first, 12% for the second.

Compared with O=S(=O)(Nc1ccccn1)c1ccc(Oc2ccccc2)cc1, O=c1oc2ccccc2n1Cc1ccccc1F is higher in “hERG current change (%, negative = inhibition) at 1uM” value: -27.4% for the first, 13.3% for the second.

Compared with COc1cc(/C=N/N(C)C)cc(Br)c1O.O=P(O)(O)O, CN(c1ccc(C(=O)NCCSC(C)(C)C)cc1)S(C)(=O)=O is higher in “hERG current change (%, negative = inhibition) at 1uM” value: 4.43% for the first, 7.29% for the second.

Compared with O=C(CC1C(=O)NCCN1Cc1ccccc1C(F)(F)F)NCCc1ccccn1 (stereo not drawn), O=C1CCCN1CCCNc1ncccc1[N+](=O)[O-] is higher in “hERG current change (%, negative = inhibition) at 1uM” value: 9.45% for the first, 13.4% for the second.

First: CC(=O)c1ccc(N2CCN(C(=O)Nc3cccc(F)c3)CC2)cc1
Second: O=C(c1ccc(-n2cncn2)c([N+](=O)[O-])c1)N1CCN(S(=O)(=O)c2ccc(Br)cc2)CC1
The “hERG current change (%, negative = inhibition) at 1uM” value of the first is higher: 8.82% for the first, -33% for the second.

Compared with CC1CCN(S(=O)(=O)N2CCN(C(=O)c3ccc4c(c3)OCO4)CC2)CC1, CN(C)S(=O)(=O)c1cccc(NC(=S)NC23CC4CC(CC(C4)C2)C3)c1 is higher in “hERG current change (%, negative = inhibition) at 1uM” value: 2.75% for the first, 14% for the second.

Going from Cc1ccc2c(c1)CNc1ccccc1O2 to Cc1ccc(CSc2nnc(-c3ccncc3)n2C)cc1, the “hERG current change (%, negative = inhibition) at 1uM” value rises from -11.7% to 5.72%.

Going from COC(=O)C(O)(NC(=O)NC(C)=O)C(F)(F)F (stereo not drawn) to CC(=O)[C@H]1CC[C@H]2[C@@H]3CCC4=CC(=O)CC[C@]4(C)[C@H]3[C@H](O)C[C@]12C, the “hERG current change (%, negative = inhibition) at 1uM” value falls from 8.26% to 2.12%.

O=C(CSc1nnc(-c2ccccc2)o1)N1CCCC1 was tested, and the “hERG current change (%, negative = inhibition) at 1uM” value was 14.5%.
